{
  "source": "PubChem BioAssay AID1460",
  "about": "(National Center for Advancing Translational Sciences (NCATS), 2008)",
  "note": "In all, about 270,000 compounds went through this assay and about 5,800 (2.1%) were called active. The shares of active, inactive and inconclusive entries below differ from those in the screen. The call rests on the fitted dose curve; in most records, active means well fitted inhibition curve with a large enough effect; inconclusive means small, poorly fitted or top-dose-only effect; inactive means flat fitted curve, though single readings scatter. A potency beside an inconclusive call is a rough fit, not a confirmed value. On the % scale 0 is the no-effect control and ±100 the full control effect; potency means the concentration at half of the fitted maximal effect; tags describe the fitted curve by direction and shape.",
  "data": [
    {"target": "Microtubule-associated protein tau (Homo sapiens) (UniProt P10636)", "sequence (P10636 whole entry, looked up)": "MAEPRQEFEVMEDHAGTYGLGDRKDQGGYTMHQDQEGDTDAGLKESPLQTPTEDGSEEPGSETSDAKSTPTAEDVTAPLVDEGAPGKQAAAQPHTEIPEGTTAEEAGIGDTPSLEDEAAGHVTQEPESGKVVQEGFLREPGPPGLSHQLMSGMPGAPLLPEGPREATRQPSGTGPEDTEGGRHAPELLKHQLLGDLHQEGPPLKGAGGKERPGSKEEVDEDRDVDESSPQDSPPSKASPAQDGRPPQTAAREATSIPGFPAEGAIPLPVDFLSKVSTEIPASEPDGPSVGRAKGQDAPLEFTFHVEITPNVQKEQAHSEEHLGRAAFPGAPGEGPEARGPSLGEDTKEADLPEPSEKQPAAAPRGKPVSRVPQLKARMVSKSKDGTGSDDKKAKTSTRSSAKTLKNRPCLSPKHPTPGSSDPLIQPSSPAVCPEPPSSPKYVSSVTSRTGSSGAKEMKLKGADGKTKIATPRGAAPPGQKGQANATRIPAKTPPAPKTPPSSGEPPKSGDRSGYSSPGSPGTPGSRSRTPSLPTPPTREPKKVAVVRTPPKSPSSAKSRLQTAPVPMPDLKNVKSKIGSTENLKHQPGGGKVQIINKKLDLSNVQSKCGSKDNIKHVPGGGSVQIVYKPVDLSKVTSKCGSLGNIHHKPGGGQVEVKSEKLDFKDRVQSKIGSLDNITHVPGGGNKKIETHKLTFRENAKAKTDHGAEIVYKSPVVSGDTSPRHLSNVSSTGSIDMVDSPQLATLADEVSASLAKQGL", "assay": "qHTS for Inhibitors of Tau Fibril Formation, Thioflavin T Binding; further: nearly all actives have a fitted effect of over 55% in size", "settings": "recombinant tau K18 P301L, heparin-induced fibrillization, ThT fluorescence; series mostly up to 57.4 µM; activity, negative = inhibition: at the top concentration", "in_short": "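Fibril formation assay: tau K18 P301L at 15 uM with trace Alexa 594 label, heparin inducer 20 uM, pH 7 sodium acetate buffer, 37 C for 6 hr; endpoint ThT signal.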", "values": [
      {"smiles": "CC(CCc1ccccc1)NC(=O)CSc1n[nH]c(-c2ccc(F)cc2)n1", "note": "(stereo not given)", "activity, negative = inhibition": "inactive: 0.86%"},
      {"smiles": "COC(=O)c1cc([N+](=O)[O-])c(-n2ccnc2)c([N+](=O)[O-])c1", "Potency": "inconclusive: 12.6 µM [inhibitor, partial curve]"},
      {"smiles": "O=C(O)c1cccc(NC2=C(Cl)C(=O)c3ccccc3C2=O)c1", "Potency": "active: 2.82 µM"},
      {"smiles": "CC(=O)c1ccc(NC(=O)c2nc(-c3ccccc3)n(-c3ccccc3)n2)cc1", "activity, negative = inhibition": "inactive: -7.89%"},
      {"smiles": "O=C(Nc1ccc(Br)cc1F)N1CC=C(c2c[nH]c3ccccc23)CC1", "Potency": "active: 8.91 µM"},
      {"smiles": "C=CCn1c(O)c(N=Nc2ccccc2C)c2ccccc21", "Potency": "inconclusive: 12.6 µM [inhibitor, partial curve]"},
      {"smiles": "C/C=C\\C=C\\C(=O)Nc1cccc(C2=NOC3(C2)C[C@@H](C(N)=O)N(C(=O)C(c2ccccc2)c2ccccc2)C3)c1", "note": "(stereo not given in full)", "Potency": "inconclusive: 31.6 µM [inhibitor, single point]"},
      {"smiles": "OCCNC(=S)NCc1ccccc1", "activity, negative = inhibition": "inactive: -4.29%"},
      {"smiles": "Cc1cccc(Oc2nc3ccccn3c(=O)c2/C=C(\\C#N)C(=O)NC2CCS(=O)(=O)C2)c1", "note": "(stereo not given)", "activity, negative = inhibition": "inactive: -1.1%"},
      {"smiles": "C=CCSc1nnc(NC(=O)c2ccc(Cl)nc2)s1", "activity, negative = inhibition": "inactive: -12.7%"},
      {"smiles": "COc1ccc(C)cc1NC(=O)c1cn(C)c(=O)c2cc(OC)c(OC)cc12", "activity, negative = inhibition": "inactive: -9.77%"},
      {"smiles": "COc1cc(/C=C2/N=C(C3CCCCC3)OC2=O)cc(OC)c1OC", "Potency": "inconclusive: 15.8 µM [inhibitor, partial curve]"},
      {"smiles": "CN(C)CCn1c(=O)n(-c2cccc(Cl)c2)c(=O)c2c3c(sc21)CCCCC3", "Potency": "inconclusive: 44.7 µM [inhibitor, single point]"},
      {"smiles": "Nc1ccc(N2CCCCC2)cc1N1CCCCC1", "Potency": "inconclusive: 11.2 µM [inhibitor, partial curve]"},
      {"smiles": "Cc1cc(S(=O)(=O)Nc2ccc(C(=O)O)cc2)c(C)c(S(=O)(=O)c2ccc(Cl)cc2)c1", "activity, negative = inhibition": "inactive: -15.5%"},
      {"smiles": "O=C(N/N=C1/CCSC1)c1cc(Br)ccc1O", "Potency": "inconclusive: 20 µM [inhibitor, partial curve, poor fit]"},
      {"smiles": "CCc1nnc2c(Nc3ccc(N(CC)CC)cc3C)nc3ccccc3n12", "Potency": "inconclusive: 11.2 µM [inhibitor, partial curve]"},
      {"smiles": "O=C(O)Cc1ccc(C(=O)CSc2ccccc2)s1", "Potency": "inconclusive: 39.8 µM [inhibitor, single point]"},
      {"smiles": "Fc1ccc(-c2csc(=S)[nH]2)cc1", "Potency": "inconclusive: 28.2 µM [inhibitor, partial curve]"},
      {"smiles": "NC(=O)c1ccsc1NC(=O)c1nc(-c2ccccc2)n(-c2ccccc2)n1", "Potency": "inconclusive: 5.62 µM [inhibitor, partial curve, poor fit]"},
      {"smiles": "Cc1ccc(-c2csc(N3N=C(c4ccccc4)/C(=C\\c4ccc(N(C)C)cc4)C3=O)n2)cc1", "Potency": "inconclusive: 14.1 µM [inhibitor, partial curve]"},
      {"smiles": "COc1cccc(/C=N/n2c(N)nc3ccccc32)c1OC", "Potency": "inconclusive: 2.51 µM [inhibitor, full curve]"},
      {"smiles": "N#Cc1c(Nc2ccccc2C(F)(F)F)s[nH]c1=O", "Potency": "active: 15.8 µM"},
      {"smiles": "COc1ccc(Cn2ccc3nc(C)c(C(=O)N4CCN(c5ccc(OC)cc5)CC4)cc3c2=O)cc1", "Potency": "inconclusive: 20 µM [inhibitor, partial curve]"},
      {"smiles": "CC(C)c1ccc(NC(=O)CSc2nc3ccccc3nc2Cc2ccccc2)cc1", "activity, negative = inhibition": "inactive: 7.26%"},
      {"smiles": "O=C1CCC(=O)N1CCC(c1ccc(F)cc1)c1ccco1", "note": "(stereo not given)", "activity, negative = inhibition": "inactive: -15.8%"},
      {"smiles": "CCC(=O)N1CCN(c2ccc(NC(=S)NC(=O)c3ccc(OC)c([N+](=O)[O-])c3)cc2)CC1", "Potency": "active: 2.51 µM"},
      {"smiles": "CCc1ccc(CNC(=O)c2cc3c(=O)n(Cc4cccs4)ccc3nc2C)cc1", "Potency": "inconclusive: 39.8 µM [inhibitor, single point]"},
      {"smiles": "CC(C)(Oc1ccc(Cl)cc1)C(=O)NCCN1C(=O)S/C(=C/c2cccnc2)C1=O", "Potency": "inconclusive: 22.4 µM [inhibitor, single point]"},
      {"smiles": "COC(=O)c1cc2oc(C)cc2n1CC(=O)Nc1ccc(C)c(C)c1", "Potency": "inconclusive: 17.8 µM [inhibitor, single point]"},
      {"smiles": "O=C(CSc1ccc(-c2cccc([N+](=O)[O-])c2)nn1)N1CCCC1", "Potency": "inconclusive: 35.5 µM [inhibitor, single point]"},
      {"smiles": "COc1cccc(N2CCN(C(=O)CCCCCn3c(=O)[nH]c4ccccc4c3=O)CC2)c1", "Potency": "inconclusive: 3.98 µM [inhibitor, partial curve]"},
      {"smiles": "CC1CCn2c(nc3cc(C(=O)NCc4ccc(OC(C)C)cc4)ccc32)C1", "note": "(stereo not given)", "activity, negative = inhibition": "inactive: -7.43%"},
      {"smiles": "O=C(O/N=C\\c1ccc(N2CCCCC2)c([N+](=O)[O-])c1)c1ccc(Cl)cc1Cl", "Potency": "active: 5.01 µM"},
      {"smiles": "COc1ccc(/C=C2\\N=C(C)OC2=O)cc1[N+](=O)[O-]", "Potency": "inconclusive: 10 µM [inhibitor, partial curve]"},
      {"smiles": "CCCCOC(=O)Nc1sc2c(c1C(=O)OC)CCC2", "Potency": "inconclusive: 17.8 µM [inhibitor, partial curve]"},
      {"smiles": "O=C(CSc1nc2c([nH]c3ccccc32)c(=O)n1-c1cccc(C(F)(F)F)c1)N1CCc2ccccc21", "activity, negative = inhibition": "inactive: -2.97%"},
      {"smiles": "CCc1cc2c(cc(C(=O)OC)n2Cc2nc(-c3ccc(C)cc3)oc2C)s1", "Potency": "inconclusive: 5.01 µM [inhibitor, partial curve]"},
      {"smiles": "CC(=O)Nc1ccc(S(=O)(=O)Nc2nccc(/C=C/c3ccc(Cl)cc3)n2)cc1", "Potency": "inconclusive: 6.31 µM [inhibitor, partial curve]"},
      {"smiles": "Cc1cccc(-n2c(=O)c3ccccc3n(Cc3ccccc3)c2=O)c1", "activity, negative = inhibition": "inactive: -8.68%"},
      {"smiles": "O=C(CCCOc1ccc(Cl)cc1Cl)N/N=C/c1ccccc1O", "activity, negative = inhibition": "inactive: 0.758%"},
      {"smiles": "CC1CCC(C(C)C)C(OCC(O)CN2CCCC(C)C2)C1", "note": "(stereo not given)", "activity, negative = inhibition": "inactive: 4.14%"},
      {"smiles": "O=C(CSCc1ccc(Cl)cc1)c1ccco1", "activity, negative = inhibition": "inactive: -13.7%"},
      {"smiles": "COc1ccc(C(=O)NCc2ccc3c(c2)CCN3C(=O)c2ccc(C)cc2)cc1", "activity, negative = inhibition": "inactive: -7.91%"},
      {"smiles": "COc1c(OC)c(O)c2c(=O)cc(-c3c(O)cccc3O)oc2c1OC", "Potency": "inconclusive: 2.82 µM [inhibitor, partial curve]"},
      {"smiles": "COc1ccc(COC(=O)N/N=C2/C[C@@H](O)[C@@H](O)[C@@H]3[C@@H]4C(=O)N(C5CCCCC5)C(=O)[C@H]4CC[C@H]23)cc1", "activity, negative = inhibition": "inactive: -8.93% [at 11.5 µM]"},
      {"smiles": "Cc1[nH]c2ccccc2c1C(Nc1nccs1)c1ccncc1", "note": "(stereo not given)", "Potency": "inconclusive: 8.91 µM [inhibitor, full curve]"},
      {"smiles": "CCCCOC(=O)c1ccc(-c2ccc(/C=N/NC(=S)NCC)o2)cc1", "Potency": "inconclusive: 8.91 µM [inhibitor, partial curve]"},
      {"smiles": "CCOc1cc(C)c(Cl)cc1S(=O)(=O)N1CCCC1", "activity, negative = inhibition": "inactive: -4.35%"},
      {"smiles": "O=C(Cn1cc(SCc2ccccc2F)c2ccccc21)N1CCCCC1", "activity, negative = inhibition": "inactive: -10.2%"},
      {"smiles": "COc1ccc(-c2c(C)nn3c(C(F)(F)F)cc(-c4ccccc4)nc23)cc1", "Potency": "inconclusive: 4.47 µM [inhibitor, partial curve]"},
      {"smiles": "Cc1ccc(C(=O)CSc2nc3cccnc3n2C)cc1", "activity, negative = inhibition": "inactive: -9.47%"},
      {"smiles": "COC(=O)c1sc2ccccc2c1NC(=O)c1ccc(S(=O)(=O)N2CCCCC2)cc1", "activity, negative = inhibition": "inactive: -7.43%"},
      {"smiles": "O=C1NN(c2cccc(Br)c2)C(=O)/C1=C/c1ccc(-c2cc([N+](=O)[O-])ccc2O)o1", "Potency": "active: 2.82 µM"},
      {"smiles": "COc1ccc(CS(=O)(=O)/C(Cl)=C(/Cl)C(=O)Nc2ccc(OC)nc2)cc1", "Potency": "active: 7.94 µM"},
      {"smiles": "CCc1nnc(NS(=O)(=O)c2ccc(N/C=C/C(=O)c3ccc(C)cc3)cc2)s1", "Potency": "inconclusive: 17.8 µM [inhibitor, single point]"},
      {"smiles": "Cc1cc2cc(CNC(=O)c3ccc(Br)o3)ccc2n1C", "Potency": "inconclusive: 31.6 µM [inhibitor, single point]"},
      {"smiles": "Cn1nc(C(=O)NCc2ccccc2Cl)c2c1-c1ccccc1S(=O)(=O)C2", "activity, negative = inhibition": "inactive: -5.37%"},
      {"smiles": "Cc1ccc2cc(CCNC(=O)C(=O)c3c[nH]c4ccccc34)c(=O)[nH]c2c1", "Potency": "inconclusive: 8.91 µM [inhibitor, single point]"},
      {"smiles": "CC(=O)Nc1ccc(NC(=O)CSc2nnc3c4ccccc4n(C)c3n2)cc1", "Potency": "inconclusive: 1.12 µM [inhibitor, full curve]"},
      {"smiles": "C/C=C\\C=C/C(=O)Nc1cccc(C2=NOC3(C2)C[C@@H](C(N)=O)N(C(=O)COc2ccc(Cl)cc2)C3)c1", "note": "(stereo not given in full)", "Potency": "inconclusive: 10 µM [activator, partial curve, poor fit]"},
      {"smiles": "CC(=O)OCC1=C(C(=O)O)N2C(=O)C(NC(=O)C(C)Cn3cc(Cl)cn3)C2SC1", "note": "(stereo not given)", "Potency": "inconclusive: 14.1 µM [inhibitor, partial curve]"},
      {"smiles": "CC1C(=O)NN=C1C(=O)N/N=C\\C(Br)=C\\c1ccccc1", "note": "(stereo not given)", "activity, negative = inhibition": "inactive: 1.22%"},
      {"smiles": "O=C(/C=C/c1cccc([N+](=O)[O-])c1)NCCSCc1c(Cl)cccc1Cl", "Potency": "inconclusive: 12.6 µM [inhibitor, partial curve]"},
      {"smiles": "O=C(CN1CCOCC1)Nc1ccc(OCc2ccccc2)cc1", "Potency": "inconclusive: 3.16 µM [inhibitor, partial curve]"},
      {"smiles": "CCCOc1ccc(CNC(=O)CCCn2nc(C)c3sc4ccccc4c3c2=O)cc1", "Potency": "inconclusive: 31.6 µM [activator, partial curve]"},
      {"smiles": "O=S(=O)(c1ccc(Br)cc1)c1nnn2c1nc(NCc1ccc3c(c1)OCO3)c1sccc12", "Potency": "inconclusive: 7.08 µM [inhibitor, partial curve]"},
      {"smiles": "CCOC(=O)c1cc2sccc2n1CC(=O)N1c2ccccc2CC1C", "note": "(stereo not given)", "activity, negative = inhibition": "inactive: 11%"},
      {"smiles": "Cc1ccc(NC(=O)C2CC(=O)N(Cc3ccccc3)C2)cc1S(=O)(=O)N1CCCCCC1", "note": "(stereo not given)", "Potency": "inconclusive: 39.8 µM [inhibitor, single point]"},
      {"smiles": "O=c1c(C(c2ccccc2)c2c(O)sc3ccccc3c2=O)c(O)sc2ccccc12", "Potency": "inconclusive: 14.1 µM [inhibitor, partial curve]"}
    ]}
  ]
}
